In all, about 81,000 sequences were measured (“one-hybrid fitness for binding NBS DNA”: median about -0.1, highest 2% from about 0.36 on). The list shows a part of the results.
B1: Caulobacter ParB omega fusion; a variant is named by its letters at X, in order, B8GW30 (parent)
chain: MESVVVGEPGMSEGRRGLGRGLSALLGEVDAAPAQAPGEQLGGSREAPIEILQRNPDQPRRTFREEDLEDLSNSIREKGVLQPILVRPSPDTAGEYQIVAGERAWRAAQRAGLKTVPIMVRELDDLAVLEIGIIENVQRADLNVLEEALSYKVLMEKFERTQENIAQTIGKSXSHVANXMRLLXLPDEVQSYLVSGELTAXHARAIAAAADPVALAKQIIEGGLSVRETEALARKAPNLSAGKSKGGRPPRVKDTDTQALESDLSSVLGLDVSIDHRGSTGTLTITYATLEQLDDLCNRLTRGI

Variants of: B1
Experiment: one-hybrid fitness for binding NBS DNA (the Noc-binding site; scaled: cognate 1, non-cognate 0); higher = stronger binding
Conditions: with NBS DNA site
Method in brief: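 Fitness is the rescaled log change in variant-to-wild-type read ratio, measured by Illumina sequencing of plasmids before and after bacterial one-hybrid selection. The scale puts cognate at 1 and non-cognate at 0. Selection of Caulobacter ParB libraries, four specificity codons randomised, took place in E. coli USO with a HIS3 reporter, site 19 bp from the promoter, over 48 hours at 37°C on M9-minus-histidine with 0.1 mM IPTG and 5 mM 3-AT.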

Row | Variant | one-hybrid fitness for binding NBS DNA
1 | LKLA | ≤ 0.2
2 | YCTD | ≤ 0.2
3 | STLV | ≤ 0.2
4 | RLHT | 0.437
5 | AEGI | ≤ 0.2
6 | PTTL | ≤ 0.2
7 | RTMI | ≤ 0.2
8 | WRES | ≤ 0.2
9 | QLWR | 0.319
10 | ANMV | ≤ 0.2
11 | VGEF | ≤ 0.2
12 | RDDR | ≤ 0.2
13 | FEMR | ≤ 0.2
14 | PRKN | ≤ 0.2
15 | RSSE | ≤ 0.2
16 | TNVV | ≤ 0.2
17 | CNQS | ≤ 0.2
18 | RQDQ | ≤ 0.2
19 | RANT | 0.496
20 | RNMM | ≤ 0.2
21 | QSLH | ≤ 0.2

Row | Variant | one-hybrid fitness for binding NBS DNA
22 | GEIS | ≤ 0.2
23 | RMDS | ≤ 0.2
24 | PQII | ≤ 0.2
25 | CIFG | ≤ 0.2
26 | FPKR | ≤ 0.2
27 | FHTA | ≤ 0.2
28 | RWSI | ≤ 0.2
29 | NTTE | ≤ 0.2
30 | PGCV | ≤ 0.2
31 | CIYR | ≤ 0.2
32 | HIHR | ≤ 0.2
33 | QGTV | ≤ 0.2
34 | EGPG | ≤ 0.2
35 | SVPH | ≤ 0.2
36 | SWPC | ≤ 0.2
37 | HLIC | ≤ 0.2
38 | RYAK | ≤ 0.2
39 | CSFP | ≤ 0.2
40 | SWVK | ≤ 0.2
41 | RFTK | ≤ 0.2
42 | RGNW | ≤ 0.2

Row | Variant | one-hybrid fitness for binding NBS DNA
43 | RAAY | ≤ 0.2
44 | RTHW | ≤ 0.2
45 | FGHL | ≤ 0.2
46 | FWRS | ≤ 0.2
47 | SPVF | ≤ 0.2
48 | WNKS | ≤ 0.2
49 | MVDT | ≤ 0.2
50 | PMNI | ≤ 0.2
51 | WLVT | ≤ 0.2
52 | VLMR | ≤ 0.2
53 | EKDS | ≤ 0.2
54 | AKKL | ≤ 0.2
55 | SNFS | ≤ 0.2
56 | GMYM | ≤ 0.2
57 | FSLK | ≤ 0.2
58 | TPRR | 0.276
59 | RYIG | ≤ 0.2
60 | RRGI | ≤ 0.2
61 | QSVT | 0.328
62 | EDIR | ≤ 0.2
63 | GRKA | ≤ 0.2

Row | Variant | one-hybrid fitness for binding NBS DNA
64 | WSKC | ≤ 0.2
65 | ATSP | ≤ 0.2
66 | MCTF | ≤ 0.2
67 | QMAT | 0.505
68 | DHLR | ≤ 0.2
69 | WTCC | ≤ 0.2
70 | TQSA | ≤ 0.2
71 | KSKS | ≤ 0.2
72 | EMDR | ≤ 0.2
73 | WMCS | ≤ 0.2
74 | PHQT | ≤ 0.2
75 | NEGL | ≤ 0.2
76 | LHLG | ≤ 0.2
77 | DDTG | ≤ 0.2
78 | PKHR | ≤ 0.2
79 | VNVA | ≤ 0.2
80 | LENF | ≤ 0.2
81 | PKEE | ≤ 0.2
82 | KSVF | ≤ 0.2
83 | EDAK | ≤ 0.2
84 | LQSG | ≤ 0.2
